Laboratory results from PubChem BioAssay AID1508623 (National Center for Advancing Translational Sciences (NCATS), 2021).
In all, about 48,000 compounds went through this assay and about 450 (0.94%) were called active. Roughly 19% stayed inconclusive and do not appear here. Calls come from the whole dose curve; as a rule, active = well fitted inhibition curve with a large enough effect; inconclusive = small, poorly fitted or top-dose-only effect; inactive = no such curve, though single readings can be large or run the other way. The list shows a part of the results.

assay: Primary qHTS for Identification of Small Molecule Inhibitors of Huntingtin Promoter Activity; settings: HEK293 HTT promoter firefly luciferase reporter (activity 0% = vehicle and -100% = no light), 24 h; series mostly up to 57.5 µM; activity change, negative = inhibition: at the top concentration; note: nearly all actives have a fitted effect of over 50% in size
Method in brief: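 HEK293 Fluc reporter, 2,500 cells/well, 24 h pre-culture; cpds up to 57.5 uM final, 24 h 37 degrees C; Dual-Glo, 10 min RT; normalized vehicle = 0%, zero RLU = -100%.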

Activity change, negative = inhibition, inactive:
CCN1CCN(c2cc(C)c3cc(NC(=O)c4ccccc4F)ccc3n2)CC1 22.2%
CCc1cccc(C)c1NC(=O)CN(C)S(=O)(=O)c1cccc2nsnc12 -29.6%
Cc1ccc(N2CCN(c3nc4c(S(=O)(=O)c5ccc(C)c(C)c5)nnn4c4ccccc34)CC2)c(C)c1 5.37%
Cc1c(C(=O)N(Cc2ccc(N(C)C)cc2)CC2CCCO2)oc2ccc(Br)cc12 (stereo not drawn) -10.6%
Cc1ccc(S(=O)(=O)c2cn(C)c3cc(N4CCCCC4)c(F)cc3c2=O)cc1 -11.9%
COc1ccc(C)cc1NC(=O)N1CCC(CN2CCC(C)CC2)CC1 -4.32%
COC(=O)c1ccccc1NC(=O)Cn1c(=O)n(-c2cccc(C(F)(F)F)c2)c(=O)c2c(C)c(C)sc21 -6.09%
COCCCNC(=O)c1ccc(Cn2c(SCc3cccc(C)c3)nc3cccnc32)cc1 -11.4%
Cc1ccc(S(=O)(=O)NCC2CCC(C(=O)NCCc3ccc(Cl)cc3)CC2)cc1 (stereo not drawn) -0.369%
CCOC(=O)C1CCCN(C(=O)c2nn(-c3ccc(C)cc3)c(=O)c3c2c2ccccc2n3C)C1 (stereo not drawn) -11.3%
CCCn1c(CCCNC(=O)c2ccccc2OC)nc2ccccc21 -10.1%
O=C(/C=C\c1ccccc1)NC1CC(=O)N(c2ccccc2)C1 (stereo not drawn) -26.8%
CC(=O)CCCCn1c(=O)c2c(ncn2C)n(C)c1=O -2.34%
CCN(Cc1ccccc1)C(=O)c1sc2nc3n(c(=O)c2c1C)CCCC3 -18%
CCN(CC)CCCNC(=O)c1nn(-c2ccc(C)cc2)c(=O)c2c1c1ccccc1n2C -8.31%
COc1ccccc1CNC(=O)c1cc2c(s1)-c1ccccc1OC2 10.2%
COCCNC(=O)Cn1c(=O)n(CCCCCC(=O)Nc2ccccc2)c(=O)c2sccc21 18.1%
COc1ccc(/C=C(\C#N)c2nc3ccccc3n2C)c(OC)c1 65.8%
O=S(=O)(c1ccccc1)c1nnn2c1nc(NCc1ccccc1)c1sccc12 2.46%
Cc1ccc(Cl)cc1N1CCN(C(=O)CN2C(=O)CSc3c2c(C)nn3-c2ccccc2)CC1 -7.95%
COc1cccc(NC(=O)c2cnc(SCC(=O)N3CCOCC3)n(C)c2=O)c1 20.2%
CCc1ccc2c(c1)-c1ccccc1S(=O)(=O)N2CC(=O)N1CCCCC1 26.4%
COc1ccc(-c2cn3c(n2)sc2cc(C(=O)NCCc4ccc(OC)cc4OC)ccc23)cc1 -11%
CN(C/C=C/c1ccccc1)Cc1cccc2ccccc12 -7.51%
CCc1ccc(CNC(=O)c2c(C)oc3ncn(CC(C)C)c(=O)c23)cc1 0%
COc1cc(Cl)c(C)cc1NC(=O)Cn1ncc2c3ccccc3n(Cc3ccccc3)c2c1=O -8.44%
CCN(CC)CCCNC(=O)CN1N=C(c2ccc(OC)cc2)CCC1=O 4.47%
CCOCCCNC(=O)c1c(NC(=O)Cc2coc3ccc(C)cc23)sc2c1CCC2 -19.7%
CC(C)c1ccc(OCC(O)CN2CCN(c3ccc(F)cc3)CC2)cc1 (stereo not drawn) -29.4%
CCCCNS(=O)(=O)c1ccc2nc(-c3cccnc3)cc(C(=O)NCCOC)c2c1 -10.7%
CCC1CCCCN1C(=O)Cn1c(=O)cc(C(F)(F)F)c2c(C)nn(C)c21 (stereo not drawn) -5.45%
O=C1c2[nH]nc(-c3ccccc3O)c2C(c2ccc(F)cc2)N1CCO (stereo not drawn) -13.9%
COc1ccc(OC)c(NC(=O)Cc2c(C(=O)O)n(C)c3ccc(C)cc23)c1 -11.9%
CCOC(=O)c1c(C)sc(-c2c(-c3ccc(OC)c(F)c3)[nH]c3[nH]c(=O)[nH]c(=O)c23)c1O -2.77%
COC(=O)c1cnn(-c2ccc(C(=O)Nc3cc(OC)c(OC)c(OC)c3)cc2)c1N -16.1%
COc1ccc(-c2nc(SCC(=O)N3CCCCC3C)n[nH]2)cc1 (stereo not drawn) -27.4%
CCc1cccc(C)c1Nc1c(-c2cccc(O)c2)nc2nc(C)cc(C)n12 -29.1%
CCc1ccc(-n2c(=O)c3c(C)c(C(=O)N(C)C)sc3n(Cc3ccccc3C#N)c2=O)cc1 -1.34%
Cc1ccc(CN(Cc2ccco2)C(=O)c2ccc(Cl)cc2)o1 -35.3%
OCCN1CCN(CCCN2c3ccccc3C=Cc3ccccc32)CC1 -1.32%
C=CCNc1nc(NCC=C)nc(N2CCN(C(c3ccc(F)cc3)c3ccc(F)cc3)CC2)n1 -23.7%
COc1ccc(NC(=O)Cn2c(=O)n(Cc3ccc(C(=O)NCc4ccccc4Cl)cc3)c(=O)c3ccccc32)cc1 4.34%
COc1ccc(Cn2nnc3c(=O)[nH]c(C4CCN(C(=O)c5ccc(C)cc5)CC4)nc32)cc1OC -5.35%
CCN(CC)CCCNC(=O)CN1N=C(c2ccccc2)CCC1=O -14.9%
Cc1nn(CC(=O)N2CCN(c3cccc(C(F)(F)F)c3)CC2)c(=O)c2cccn12 8.01%
Cc1nn(C)c2c1c(C(F)(F)F)cc(=O)n2C(C)C(=O)NCc1ccccc1Cl (stereo not drawn) -12%
COC(=O)c1sccc1S(=O)(=O)N(CC(=O)NCc1ccc(F)cc1)c1ccc(Cl)cc1 -4.11%
COc1ccc(CNC(=O)c2ccc(CNS(=O)(=O)c3ccc(F)cc3)cc2)cc1 -0.433%
Cc1ccc(NC(=O)Cn2nnc(C(=O)NCc3cccs3)c2N)cc1Cl -1.64%
Cc1oc(-c2cccc(Cl)c2)nc1Cn1c(SCc2ccccc2F)nc2ccncc21 9.22%
Cc1cc(C)cc(NC(=O)Cn2c(C(F)(F)F)nc3ccccc32)c1 -19.8%
Cc1ccccc1NC(=O)CSc1nnc(-c2cccs2)o1 -17.9% [at 11.5 µM]
CCOC(=O)O[C@]1(C(=O)OCCl)CC[C@@H]2[C@H]3CCC4=CC(=O)C=C[C@]4(C)[C@@H]3[C@@H](O)C[C@@]21C 36.1%
COc1ccccc1NC(=O)CSC1=Nc2ccccc2C2=NC(CC(=O)NCc3cccs3)C(=O)N12 (stereo not drawn) -25.6%
Nc1c(CC(=O)O)cccc1C(=O)c1ccc(Br)cc1 16.8%
COc1ccc(CNC(=O)c2cnc(N3CCOCC3)c3ccccc23)cc1 -16.1%
N#Cc1ccccc1NC(=O)CSc1nnc(N)s1 -12.8%
CCc1ccc2oc(-c3cc(NC(=O)c4cc([N+](=O)[O-])ccc4N4CCOCC4)ccc3Cl)nc2c1 10.6%
Fc1ccc(-c2cn3cc(Cc4ccccc4)sc3n2)cc1 -26.4%
CCCN(CCC)C(=O)Cn1c(=O)n(-c2ccc(Cl)cc2)c(=O)c2c3c(sc21)CCCC3 -10.2%
COc1ccc(-n2ncc(C(=O)N3CCOCC3)c2C2CCN(C(=O)OC(C)(C)C)CC2)cc1 11.5%
Cn1c(=O)c2sccc2n2c(CCCC(=O)NCc3ccccc3)nnc12 -5.09%
C[C@@H]1CC[C@@]2(OC1)O[C@H]1C[C@H]3[C@@H]4CC[C@H]5C[C@@H](O)CC[C@]5(C)[C@H]4CC(=O)[C@]3(C)[C@H]1[C@@H]2C 1.48% [at 6.01 µM]
O=C1COc2ccc(-c3cc(-c4ccccc4)c4c(n3)-c3cc(Cl)ccc3OC4)cc2N1 -11.9%
CCN(C(=O)c1cn(CC)c(=O)c2cc(OC)c(OC)cc12)c1ccc(C)c(C)c1 -22.6%
Cc1ccc(N2CCN(S(=O)(=O)c3ccc4[nH]c5c(c4c3)CCCCC5)CC2)c(C)c1 -33.1%
CC1CCc2c(sc3nnn(CC(=O)Nc4ccc(Cl)cc4)c(=O)c23)C1 (stereo not drawn) -23%
O=C(Nc1cccc(F)c1F)C1CCN(c2ncccn2)CC1 -3.37%
COc1cccc(-n2nnc(-c3nc(-c4ccccc4F)no3)c2C)c1 66.9%
O=C(Nc1ccc(F)cc1)N1CCN(C(=O)c2nsc3ccccc23)CC1 -6.62%
COC(=O)c1cc2occc2n1CC(=O)Nc1ccc(C(C)C)cc1 -11.7%
COc1ccc(-c2nc3c(c(SCC(=O)N4CCCCC4)n2)Cc2c(CO)cnc(C)c2O3)cc1 -5.46%
CSc1cccc(NC(=O)Cn2ncn3c(cc4ccccc43)c2=O)c1 -2.85%
Cc1cccc(N2CCN(C(c3ccccc3)c3nnc(-c4ccccc4Cl)o3)CC2)c1C (stereo not drawn) -20.7%
CCOc1ccccc1NC(=O)C(c1ccccc1)N1Cc2ccccc2C1=O (stereo not drawn) -3.37%
COc1cccc(-c2nc(SCc3cc(=O)c4ccc(C)c(C)c4[nH]3)n[nH]2)c1 -23.8%
CCOc1ccc(NC(=O)Cn2cc(C(=O)c3ccc(CC)cc3)c(=O)c3cc(C)ccc32)cc1 -15.4%
COc1ccc(NC(=O)c2csc3c2CCCCC3)cc1 19.9%
CCCN(C(=O)c1nn(-c2ccc(OC)cc2)c(=O)c2c1c1ccccc1n2C)c1ccc(CC)cc1 -21.1%
O=C(CSc1nc2c([nH]c3ccccc32)c(=O)n1-c1ccc(F)cc1)NCc1ccccc1 -24.4%
CCOCCCn1c(SCC(=O)Nc2ccc(C(C)C)cc2)nc2c(sc3ccccc32)c1=O -18.5%
C[C@]12C=CC(=O)C=C1CC[C@H]1[C@@H]3C[C@@H](O)[C@](O)(C(=O)CO)[C@@]3(C)C[C@H](O)[C@@]12F 7.26%
Cn1c(=O)c2c(-c3ccccc3)n3c4ccccc4nc(-c4ccccc4)c3c2n(C)c1=O -4.35%
COC(=O)c1cc2occc2n1Cc1nc(-c2ccccc2F)oc1C 15.6%
COc1ccc(C(=O)NCC(c2cccnc2)N2CCc3ccccc3C2)cc1OC (stereo not drawn) -18.6%
CCn1c(=O)c2cc(C(=O)Nc3cc(F)ccc3F)sc2c2ccccc21 4.25%
O=C(Nc1cccc(-c2nc3cc(Cl)ccc3o2)c1)c1cc([N+](=O)[O-])ccc1N1CCOCC1 -2.28%
COc1ccc(CN2C(=O)c3oc4ccccc4c(=O)c3C2c2ccc(O)cc2)cc1 (stereo not drawn) -4.34%
O=C(Cn1cnc2c(oc3ccccc32)c1=O)Nc1ccccc1C(F)(F)F -7.6%
Cc1ccc(-c2nnc(Nc3cccc(Cl)c3)c3ccccc23)cc1S(=O)(=O)N1CCOCC1 22.1%
COc1ccccc1NC(=O)Cn1c(=O)n(Cc2ccccc2)c(=O)c2sc3ccccc3c21 -9.69%
COc1ccc(C)cc1NC(=O)N(Cc1ccc(C)o1)C1CCN(C(C)=O)CC1 -8.67%
CC(C(C)N1CC(=O)NC(=O)C1)N1CC(=O)NC(=O)C1 (stereo not drawn) -16.5%
